# Assay results: the supplement of paper PMC8728848
# The list shows a part of the results.
# B1: NcCVNHO (Neurospora crassa), Q7S6U4 (protein)
# chain: MSFHVTAEDARIEVRDNRTILFARLRREDGEWNDASYELDQIIGNNDGHFQWGGQNFTETAEDIRFHPKEGAAEQPILRARLRDCNGEFHDRDVNLTEIVENVNGEFQAKF
# Key:
# Assay in all cases: glycan array binding signal (z-score within array); higher = stronger binding
# Conditions in all cases: glycan notation: IUPAC condensed, linker removed
# [1] = target: Fuc(a1-2)Gal
# Procedure, shortened: (§1)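 Glycan array binding is given as a within-array Z-score, which can be read as non-binding when negative. The arrays, 3228 of them, came from the Consortium for Functional Glycomics database and were retained only where the protein sequence was available. Z-scores were averaged across arrays of the same protein sequence at different concentrations or buffers and across linkers.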
# [2] = target: Fuc(a1-2)Gal(b1-3)GalNAc
# Procedure, shortened: as §1
# [3] = target: Fuc(a1-2)Gal(b1-3)GalNAc(b1-3)Gal
# Procedure, shortened: as §1
# [4] = target: Fuc(a1-2)Gal(b1-3)GalNAc(b1-3)Gal(a1-4)Gal(b1-4)Glc
# Procedure, shortened: as §1
# [5] = target: Fuc(a1-2)Gal(b1-3)GalNAc(b1-3)Gal(b1-4)Glc
# Procedure, shortened: as §1
# [6] = target: Fuc(a1-2)Gal(b1-3)GalNAc(b1-4)[Neu5Ac(a2-3)]Gal(b1-4)Glc
# Procedure, shortened: as §1
# [7] = target: Fuc(a1-2)Gal(b1-3)GlcNAc
# Procedure, shortened: as §1
# [8] = target: Fuc(a1-2)Gal(b1-3)GlcNAc(b1-3)Gal(b1-4)Glc
# Procedure, shortened: as §1
# [9] = target: Fuc(a1-2)Gal(b1-3)[Fuc(a1-4)]GlcNAc
# Procedure, shortened: as §1
# [10] = target: Fuc(a1-2)Gal(b1-4)Glc
# Procedure, shortened: as §1
# [11] = target: Fuc(a1-2)Gal(b1-4)Glc6S
# Procedure, shortened: as §1
# [12] = target: Fuc(a1-2)Gal(b1-4)GlcNAc
# Procedure, shortened: as §1
# [13] = target: Fuc(a1-2)Gal(b1-4)GlcNAc(b1-3)Gal(b1-4)GlcNAc
# Procedure, shortened: as §1
# [14] = target: Fuc(a1-2)Gal(b1-4)GlcNAc(b1-3)Gal(b1-4)GlcNAc(b1-3)Gal(b1-4)GlcNAc
# Procedure, shortened: as §1
# [15] = target: Fuc(a1-2)Gal(b1-4)GlcNAc6S
# Procedure, shortened: as §1
# [16] = target: Fuc(a1-2)Gal(b1-4)[Fuc(a1-3)]GalNAc(b1-3)Gal(b1-4)[Fuc(a1-3)]GlcNAc
# Procedure, shortened: as §1
# [17] = target: Fuc(a1-2)Gal(b1-4)[Fuc(a1-3)]GalNAc(b1-3)Gal(b1-4)[Fuc(a1-3)]GlcNAc(b1-3)Gal(b1-4)[Fuc(a1-3)]GalNAc
# Procedure, shortened: as §1
# [18] = target: Fuc(a1-2)Gal(b1-4)[Fuc(a1-3)]GlcNAc
# Procedure, shortened: as §1
# [19] = target: Fuc(a1-2)Gal(b1-4)[Fuc(a1-3)]GlcNAc(b1-3)Gal(b1-4)[Fuc(a1-3)]GlcNAc
# Procedure, shortened: as §1
# [20] = target: Fuc(a1-2)Gal(b1-4)[Fuc(a1-3)]GlcNAc(b1-3)Gal(b1-4)[Fuc(a1-3)]GlcNAc(b1-3)Gal(b1-4)[Fuc(a1-3)]GlcNAc
# Procedure, shortened: as §1
# [21] = target: Fuc(a1-2)Gal6S(b1-4)Glc
# Procedure, shortened: as §1
# [22] = target: Fuc(a1-2)Gal6S(b1-4)Glc6S
# Procedure, shortened: as §1
# [23] = target: Fuc(a1-2)Gal6S(b1-4)GlcNAc
# Procedure, shortened: as §1
# [24] = target: Fuc(a1-2)GlcNAc
# Procedure, shortened: as §1
# [25] = target: Fuc(a1-2)[Gal(a1-3)]Gal
# Procedure, shortened: as §1
# [26] = target: Fuc(a1-2)[Gal(a1-3)]Gal(b1-3)GlcNAc
# Procedure, shortened: as §1
# [27] = target: Fuc(a1-2)[Gal(a1-3)]Gal(b1-4)Glc
# Procedure, shortened: as §1
# [28] = target: Fuc(a1-2)[Gal(a1-3)]Gal(b1-4)GlcNAc
# Procedure, shortened: as §1
# [29] = target: Fuc(a1-2)[Gal(a1-3)]Gal(b1-4)[Fuc(a1-3)]GlcNAc
# Procedure, shortened: as §1
# [30] = target: Fuc(a1-2)[Gal(a1-4)]Gal(b1-4)GalNAc
# Procedure, shortened: as §1
# [31] = target: Fuc(a1-2)[Gal(a1-4)]Gal(b1-4)GlcNAc
# Procedure, shortened: as §1
# [32] = target: Fuc(a1-2)[GalNAc(a1-3)]Gal
# Procedure, shortened: as §1
# [33] = target: Fuc(a1-2)[GalNAc(a1-3)]Gal(b1-3)GlcNAc
# Procedure, shortened: as §1
# [34] = target: Fuc(a1-2)[GalNAc(a1-3)]Gal(b1-4)Glc
# Procedure, shortened: as §1
# [35] = target: Fuc(a1-2)[GalNAc(a1-3)]Gal(b1-4)GlcNAc
# Procedure, shortened: as §1
# [36] = target: Fuc(a1-2)[GalNAc(a1-3)]Gal(b1-4)[Fuc(a1-3)]GlcNAc
# Procedure, shortened: as §1
# [37] = target: Fuc(a1-2)[GalNAc(a1-4)]Gal(b1-4)GlcNAc
# Procedure, shortened: as §1
binder,measurement,setting,value
B1,glycan array binding signal (z-score),[1],-0.209
same,glycan array binding signal (z-score),[2],-0.18
same,glycan array binding signal (z-score),[3],-0.219
same,glycan array binding signal (z-score),[4],-0.178
same,glycan array binding signal (z-score),[5],-0.132
same,glycan array binding signal (z-score),[6],-0.232
same,glycan array binding signal (z-score),[7],-0.261
same,glycan array binding signal (z-score),[8],5.47
same,glycan array binding signal (z-score),[9],-0.232
same,glycan array binding signal (z-score),[10],-0.212
same,glycan array binding signal (z-score),[11],-0.176
same,glycan array binding signal (z-score),[12],-0.211
same,glycan array binding signal (z-score),[13],-0.236
same,glycan array binding signal (z-score),[14],-0.19
same,glycan array binding signal (z-score),[15],-0.179
same,glycan array binding signal (z-score),[16],-0.154
same,glycan array binding signal (z-score),[17],-0.12
same,glycan array binding signal (z-score),[18],-0.231
same,glycan array binding signal (z-score),[19],-0.256
same,glycan array binding signal (z-score),[20],-0.096
same,glycan array binding signal (z-score),[21],-0.151
same,glycan array binding signal (z-score),[22],-0.177
same,glycan array binding signal (z-score),[23],-0.185
same,glycan array binding signal (z-score),[24],-0.227
same,glycan array binding signal (z-score),[25],-0.18
same,glycan array binding signal (z-score),[26],-0.226
same,glycan array binding signal (z-score),[27],-0.229
same,glycan array binding signal (z-score),[28],-0.226
same,glycan array binding signal (z-score),[29],-0.193
same,glycan array binding signal (z-score),[30],-0.124
same,glycan array binding signal (z-score),[31],-0.258
same,glycan array binding signal (z-score),[32],-0.204
same,glycan array binding signal (z-score),[33],-0.208
same,glycan array binding signal (z-score),[34],-0.218
same,glycan array binding signal (z-score),[35],-0.232
same,glycan array binding signal (z-score),[36],-0.212
same,glycan array binding signal (z-score),[37],-0.206
